Columns and labels:
SGK1 = conditions: cited from earlier work
human recombinant SGK1 = molecular target: T1, human recombinant SGK1 (Homo sapiens, UniProt O00141); experiment: SGK1 inhibition assay (radioactive, 33P-ATP, MRC Unit Dundee); format: biochemical; conditions: 10 µM compound
T1 sequence (O00141 60-431): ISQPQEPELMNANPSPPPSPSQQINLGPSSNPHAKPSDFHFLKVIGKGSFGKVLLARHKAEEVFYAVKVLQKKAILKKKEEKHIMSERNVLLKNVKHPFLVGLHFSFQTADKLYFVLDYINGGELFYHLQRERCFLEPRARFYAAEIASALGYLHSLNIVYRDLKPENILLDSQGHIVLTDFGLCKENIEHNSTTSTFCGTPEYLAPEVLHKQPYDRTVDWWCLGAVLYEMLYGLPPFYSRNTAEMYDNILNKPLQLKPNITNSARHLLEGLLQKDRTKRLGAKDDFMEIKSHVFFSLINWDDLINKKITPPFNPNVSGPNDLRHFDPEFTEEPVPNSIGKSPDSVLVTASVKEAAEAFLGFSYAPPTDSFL

| SMILES | IC50 (SGK1) | SGK1 % Inhibition@10 µM (human recombinant SGK1) |
| --- | --- | --- |
| OCCNc1nc(NCCc2ccccc2)c2cnn(/C=C\c3ccccc3)c2n1 [SI113] | 600 nM |  |
| O=C(O)c1ccc(-c2c[nH]c3ncc(-c4ccccc4)cc23)cc1C1CCCC1 [GSK650394, reference compound] |  | 92.6% |
| CCc1c(C(=O)NNC(=O)C(O)c2cc(F)cc(F)c2)ccc(O)c1C (stereo not drawn) [EMD638683] | 3000 nM |  |
